Reference: the supplement of paper PMC10126150
Values marked as one replicate rest on one cluster of the flow cell; about a third of the high ones do not repeat.

Test system: ATP
Assay: switch fluorescence ratio, 500 uM ATP over buffer (Cy3 cluster intensity, sum of 5 cycles each) (fold (ratio)); higher = stronger signal-on switching upon ATP binding; sequences stand for … in TCGTCGGCAGCGTCAGATGTGTATAAGAGACAGTTTTTTTTTTTTTTTTTTTTTTTTT…TC
Conditions: aptamer strand: ATP DNA aptamer (quencher-CACCTGGGGGAGTATTGCGGAGGAAGG + anchor), 100 nM annealed; ATP concentration: 500 uM; one replicate
Method in brief: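 Between each of five buffer/ATP cycles, the flow-cell was stripped with NaOH and re-annealed. Each cycle imaged Cy3-labelled switching-strand clusters, annealed to 100 nM quencher-labelled ATP aptamer on a modified Illumina MiSeq flow-cell, first in selection buffer and then after 15 min with 500 uM ATP at 22 °C. The fluorescence ratio is summed target-cycle over summed buffer-cycle Cy3 intensity per cluster, averaged per switch-domain sequence, with clusters outside 100-1000 RFU excluded.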
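Also: ATP exposure 15 min at 22 °C before imaging.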

Row | Sequence | switch fluorescence ratio
1 | GCAGACCGAC | 1.83
2 | GCAGAGGCAT | 1.01
3 | GCAGAGTAAA | 1.01
4 | GCAGATAT | 1.03
5 | GCAGCATTTA | 1.19
6 | GCAGCGAAGC | 0.983
7 | GCAGCGAGGT | 1.13
8 | GCAGCGCTGG | 0.977
9 | GCAGCGGG | 1.01
10 | GCAGCGGGCT | 0.934
11 | GCAGCGTGGG | 1.06
12 | GCAGCTTTGA | 1.07
13 | GCAGGAAACC | 1.05
14 | GCAGGAGAGT | 0.969
15 | GCAGGCCTCC | 1.24
16 | GCAGGCGTGC | 1.01
17 | GCAGGCTGGG | 0.981
18 | GCAGGGCTT | 0.969
19 | GCAGTAATCA | 1.14
20 | GCAGTAGAGA | 0.992
21 | GCAGTAGAGG | 0.984
22 | GCAGTATATT | 1.09
23 | GCAGTATTCG | 1.06
24 | GCAGTCCGTT | 1.02
25 | GCAGTCCTCT | 0.975

Row | Sequence | switch fluorescence ratio
26 | GCAGTGAGGC | 0.974
27 | GCAGTGTAAC | 1.02
28 | GCATAAACGG | 0.956
29 | GCATAAAGTC | 0.968
30 | GCATACAGCC | 1.05
31 | GCATAGGAAA | 1.05
32 | GCATAGTGAC | 1.05
33 | GCATAGTGGC | 0.981
34 | GCATATAGAT | 1.04
35 | GCATCAGGGT | 1.01
36 | GCATCAGTG | 0.979
37 | GCATCCAGTG | 1.2
38 | GCATCCTGGG | 0.982
39 | GCATCGGCAT | 1.04
40 | GCATCGTTCT | 1.16
41 | GCATCTTACC | 1.1
42 | GCATCTTCCT | 1.48
43 | GCATGAAGG | 0.999
44 | GCATGAATTG | 1.05
45 | GCATGATGAA | 0.955
46 | GCATGGATTT | 1.02
47 | GCATGGCGGT | 0.996
48 | GCATGTGCAT | 1.01
49 | GCATTAAAAG | 1.05
50 | GCATTAGAGT | 1.01

Row | Sequence | switch fluorescence ratio
51 | GCATTCAAGG | 0.99
52 | GCATTCGGAC | 1.22
53 | GCATTTAGCT | 0.987
54 | GCATTTAGGA | 0.967
55 | GCATTTGACC | 1.06
56 | GCCAAACAGG | 1.07
57 | GCCAACCCTT | 1.08
58 | GCCAACTAAT | 1.24
59 | GCCAACTCCG | 3.79
60 | GCCAAGAGCT | 1.03
61 | GCCAATCTGT | 1.01
62 | GCCAATGGGA | 1.01
63 | GCCACAATAG | 2.09
64 | GCCACAATGG | 1.22
65 | GCCACCGTAC | 1.89
66 | GCCACCTCAA | 1.46
67 | GCCACTCATG | 0.997
68 | GCCACTGGTA | 1.03
69 | GCCACTTAAA | 0.996
70 | GCCAGAGTGC | 1.18
71 | GCCAGGACCC | 1.03
72 | GCCAGGCC | 1.01
73 | GCCAGGGCCG | 1.03
74 | GCCAGTCTTA | 1.03
75 | GCCATGAGAT | 1

Row | Sequence | switch fluorescence ratio
76 | GCCATGATGC | 1.04
77 | GCCATGGCGA | 1.01
78 | GCCCACCTAT | 1.05
79 | GCCCAGGTTT | 0.995
80 | GCCCATTAAT | 1.02
81 | GCCCCAATCG | 1.03
82 | GCCCCACGTT | 1.01
83 | GCCCCATCAA | 1.04
84 | GCCCCCCGGA | 1.23
85 | GCCCCCGGAC | 1.09
86 | GCCCCGCGTC | 1.85
87 | GCCCCGGTCG | 1.06
88 | GCCCCGTCTT | 1.02
89 | GCCCCTCGAA | 1.05
90 | GCCCCTTCAG | 0.995
91 | GCCCGAGGGG | 0.991
92 | GCCCGTGCC | 1.03
93 | GCCCGTGTCA | 1.01
94 | GCCCTACATG | 1.03
95 | GCCCTATCCG | 0.996
96 | GCCCTATGCG | 1.01
97 | GCCCTATTTT | 0.96
98 | GCCCTCATGG | 1.03
99 | GCCCTCGCGC | 1.06
100 | GCCCTCTGCG | 1.12
